According to PMC4336329 (PLoS ONE, 2015):
Screen size: about 310,000 compounds; about 2,200 (0.71%) showed an effect of 50% or more. The effect is printed as a negative number. This is one part of the list.

The compounds below were run against human ether-à-go-go-related gene (hERG) potassium channel (human, UniProt Q12809) (assay: primary screen, population patch clamp on CHO cells stably expressing hERG).
Sequence of human ether-à-go-go-related gene (hERG) potassium channel (Q12809 whole entry, looked up): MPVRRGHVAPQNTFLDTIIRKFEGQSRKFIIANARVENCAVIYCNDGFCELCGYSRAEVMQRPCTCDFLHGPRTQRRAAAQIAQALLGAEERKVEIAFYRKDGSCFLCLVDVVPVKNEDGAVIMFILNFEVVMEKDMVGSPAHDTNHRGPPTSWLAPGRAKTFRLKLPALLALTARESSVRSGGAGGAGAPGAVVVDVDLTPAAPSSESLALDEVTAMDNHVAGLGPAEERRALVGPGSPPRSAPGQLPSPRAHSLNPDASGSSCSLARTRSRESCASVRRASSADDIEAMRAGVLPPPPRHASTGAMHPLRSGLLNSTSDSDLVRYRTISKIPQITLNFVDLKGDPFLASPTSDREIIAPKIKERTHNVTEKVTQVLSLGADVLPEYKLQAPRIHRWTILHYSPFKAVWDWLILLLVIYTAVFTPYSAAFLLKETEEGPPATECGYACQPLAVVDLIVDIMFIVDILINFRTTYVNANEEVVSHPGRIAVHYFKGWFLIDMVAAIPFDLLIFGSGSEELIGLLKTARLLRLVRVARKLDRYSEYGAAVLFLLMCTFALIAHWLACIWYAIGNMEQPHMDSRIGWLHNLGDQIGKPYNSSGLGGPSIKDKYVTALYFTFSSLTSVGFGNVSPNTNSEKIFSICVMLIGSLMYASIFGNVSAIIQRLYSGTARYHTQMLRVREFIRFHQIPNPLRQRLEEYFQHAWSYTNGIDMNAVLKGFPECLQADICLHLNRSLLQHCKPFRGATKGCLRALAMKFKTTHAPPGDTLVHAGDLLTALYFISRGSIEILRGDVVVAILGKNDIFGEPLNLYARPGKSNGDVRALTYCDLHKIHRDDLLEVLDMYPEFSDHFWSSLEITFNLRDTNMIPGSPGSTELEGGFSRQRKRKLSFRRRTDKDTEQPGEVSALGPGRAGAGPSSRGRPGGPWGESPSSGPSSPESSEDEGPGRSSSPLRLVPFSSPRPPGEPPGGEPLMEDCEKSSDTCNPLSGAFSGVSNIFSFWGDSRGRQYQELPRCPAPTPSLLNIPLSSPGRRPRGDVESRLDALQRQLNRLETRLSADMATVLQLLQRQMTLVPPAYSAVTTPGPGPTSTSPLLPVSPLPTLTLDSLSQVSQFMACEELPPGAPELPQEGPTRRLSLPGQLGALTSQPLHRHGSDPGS

| Compound | hERG current change (%, negative = inhibition) at 1uM [%] |
| --- | --- |
| CCc1ccc(CNC(=O)C2CCN(S(=O)(=O)N3CCC4(CC3)OCCO4)CC2)cc1 | 3.92 |
| COc1ccc(CNCCc2ccc3c(c2)OCO3)cc1Br.O=C(O)C(=O)O | 1.6 |
| CC(=O)NNS(=O)(=O)c1ccc(-c2cc(C(F)(F)F)n(C)n2)s1 | 2.67 |
| CS(=O)(=O)N1CCC(C(=O)N2CCN(C(c3ccccc3)c3ccccc3)CC2)CC1 | 4.84 |
| Cc1ccc(-c2cc(N)n(-c3ccccc3)n2)cc1 | 12.3 |
| CCC1CCCCN1C(=O)c1cc2c(=O)n3cccc(C)c3nc2s1 (stereo not drawn) | 17.2 |
| COCCn1c(SCC(=O)Nc2nnc(C)s2)nnc1-c1c[nH]c2ccccc12 | -0.313 |
| CCOC(=O)C1CCN(C(=O)Cn2cnc3sc(C)c(S(=O)(=O)N4CCC(C)CC4)c3c2=O)CC1 | -39.9 |
| CC1c2cc3c(cc2CCN1C(=O)c1ccc(Br)cc1)OCCCO3 (stereo not drawn) | 10.5 |
| CCOC(=O)c1ccccc1NC(=O)Cc1c(C(=O)O)n(C)c2ccccc12 | 8.48 |
| O=C(COc1ccc2c3c(c(=O)oc2c1)CCC3)N1CCCCC1 | 7.32 |
| CSc1ccccc1C(=O)NC1CCCCCC1 | 7.11 |
| Cc1ccc(NC(=O)CN(C)C(=O)c2ccc(C(F)(F)F)cc2)cc1 | 3.53 |
| O=C(Nc1ccc(F)cc1)Nc1nnc(-c2ccccc2)o1 | 2.34 |
| Cn1ccc(C(=O)Oc2ccc(C(=O)Nc3ccc(F)cc3F)cc2)n1 | 10.5 |
| Nc1nonc1-c1nc2ccccc2n1Cc1ccc(F)cc1Cl | 11.2 |
| Clc1ccccc1Nc1nc2ccccc2o1 | 12.2 |
| Cn1c(-c2ccc(C(=O)c3ccccc3)s2)nc2ccccc21 | 15.3 |
| Cc1cc2oc3ccc(NCCCn4ccnc4)cc3c(=O)c2cc1C | 11.4 |
| O=C(CN1C(=O)C2CCCCC2C1=O)Nc1nc(-c2ccccn2)cs1 (stereo not drawn) | -1.29 |
| CCOC(=O)c1c(NC(=O)C2=C(C)NC(=S)NC2c2ccc(F)cc2F)sc(C)c1C (stereo not drawn) | 3.2 |
| CC1CCN(C(=O)COC(=O)c2cc([N+](=O)[O-])ccc2N2CCOCC2)CC1 | 4.74 |

| Compound | hERG current change (%, negative = inhibition) at 1uM [%] |
| --- | --- |
| CCOC(=O)c1ccc(NS(=O)(=O)N2CCCCCC2)cc1 | 0.402 |
| COc1ccc(NC(=S)Nc2ccc3cn[nH]c3c2)cc1 | -5.74 |
| CC1(C(=O)O)CCC(C(=O)Nc2ccc(Cl)c(Cl)c2)C1(C)C (stereo not drawn) | 13.9 |
| CSc1ccc(-c2sc(Nc3ccccc3)n[n+]2-c2ccc(F)cc2)cc1.[Cl-] | 6.79 |
| CCOC(=O)c1ccc(S(=O)(=O)n2c(CN3CCCCC3)nc3ccccc32)cc1 | 15.9 |
| CC(=O)N1CCCc2cc(S(=O)(=O)N3CCCC(C(=O)Nc4ccccc4C)C3)ccc21 (stereo not drawn) | 16 |
| Cc1cccc(C)c1NC(=O)CN(C)C(=O)COc1cccc2c1OC(C)(C)C2 | 12.3 |
| Cc1ccc(C(=O)CC2(O)C(=O)N(CN3CCOCC3)c3ccccc32)cc1 (stereo not drawn) | -0.566 |
| O=c1oc2ccccc2c2c1ncn2CCN1CCOCC1 | 1.44 |
| O=C(Cc1cccs1)Nc1ccc([N+](=O)[O-])cc1 | 19.9 |
| Br.Cn1ccnc1SCC(=O)c1ccc(O)cc1 | 13 |
| O=C(COC(=O)CN1C(=O)NC2(CCCC2)C1=O)Nc1ccccc1C(F)(F)F | 12.5 |
| CCCn1c(O)c(N=NC(=O)CNC(=O)c2ccncc2)c2ccccc21 | 2.55 |
| Cc1nnc(SCc2ccon2)n1-c1ccccc1 | 14.2 |
| C=CCN1c2ccc(Br)cc2C(=O)CS1(=O)=O | 13.1 |
| CSc1ccccc1C(=O)NCc1ccc2c(c1)OCO2 | -11.3 |
| CNC(=O)COC(=O)C1CCN(S(=O)(=O)c2ccc3c(c2)OCCO3)CC1 | 16.9 |
| CCOc1ccc(Cl)cc1/C=N/NC(N)=O | 7.89 |
| Cc1ccc(C)c(NC(=O)CN(C)C(=O)c2cc(-c3cccs3)nn2-c2ccccc2)c1 | -0.477 |
| CN(C)CCCNC(=O)c1cc(C(=O)C2CCCCC2)c[nH]1 | 4.7 |
| O=C(O)C(=O)O.c1ccc(COc2ccc(OCCN3CCCC3)cc2)cc1 | -33 |
| CCN(CC)CCNC(=O)Cc1nn(CC)c(=O)c2ccccc12.Cl | 0.738 |

| Compound | hERG current change (%, negative = inhibition) at 1uM [%] |
| --- | --- |
| Cc1ccc(NC(=O)COc2cccc3c2OC(C)(C)C3)c(O)c1 | 1.98 |
| CCN1C=C(Cc2ccccc2C)C2=C(C1)C(c1ccccc1C)C(C#N)=C(N)O2.CCO (stereo not drawn) | 7.42 |
| Cc1ccc(C(=O)NC(=S)NCc2ccccc2)cc1 | 9.22 |
| O=C(CCc1nc2ccccc2s1)NC1CCOC1=O (stereo not drawn) | 9.91 |
| C/C(CC(=O)Nc1cc(C)ccn1)=N\NC(=O)c1cccc(C)c1O | 9.51 |
| CCC(C)[C@H]1CN=C(N)N1CCc1cc(C(F)(F)F)cc(C(F)(F)F)c1 (stereo partly drawn) | 9.54 |
| O=C(O)c1ccc(/C=N/Nc2nnnn2-c2ccccc2)cc1 | 17.3 |
| O=C(Nc1ccccc1C(=O)O)/C(=C/c1ccc([N+](=O)[O-])cc1)NC(=O)c1ccc(Br)o1 | 4.01 |
| Cc1ccc(S(=O)(=O)Nc2ccccc2F)cc1C(=O)N1CCN(c2ccccc2O)CC1 | 1.37 |
| O=C(CN1CCCC1)N1CCCc2c1c(=O)oc1ccc(OCc3ccccc3)cc21 | -34.1 |
| O=C(Nc1nccs1)c1cccc(NC(=O)C(F)(F)F)c1 | -5.99 |
| Cc1ccc(C(=O)Nc2cccc(C(F)(F)F)c2)cc1Nc1ncnc2nc[nH]c12 | -4.34 |
| OC[C@@H]1CCCN1Cc1cn(-c2ccccc2)nc1-c1ccc2c(c1)OCO2 | 4.91 |
| Cc1cc(C)c2[nH]c(=O)c(C(c3nnnn3C(C)(C)C)N(Cc3ccco3)CC3CCCO3)cc2c1 (stereo not drawn) | 14.6 |
| COc1ccc(N/N=C(\C#N)C(=N)N2CCOCC2)cc1 | 8.11 |
| Cc1nnc(NC(=O)CSc2nc3c(c(=O)n2CCc2ccccc2)SC(C)C3)s1 (stereo not drawn) | 13.8 |
| COc1cccc(C(=O)NCC2CCCN(C3CCCCC3)C2)c1OC (stereo not drawn) | 11.3 |
| Cc1ccc(S(=O)(=O)Nc2ncnc3sccc23)cc1C | 6.23 |
| O=C1CCc2cc(S(=O)(=O)NCc3ccc(Cl)cc3)cc3c2N1CC3 | -2.01 |
| O=C(O)/C=C/C(=O)Nc1ccc(F)cc1F | 12.5 |
| CCOC(=O)N1CCN(C(=O)CS(=O)(=O)Cc2nc(-c3ccccc3F)oc2C)CC1 | 0.789 |
| COc1ccc(-c2nc3ccc(C(=O)N4CCC5(CC4)OCCO5)cc3nc2-c2ccc(OC)cc2)cc1 | 6.29 |

| Compound | hERG current change (%, negative = inhibition) at 1uM [%] |
| --- | --- |
| COc1ccc(OC2C(=O)N(Cc3ccc(F)cc3)C2c2cc(OC)c(OC)c(OC)c2)cc1 (stereo not drawn) | 0.236 |
| Cc1ncoc1C(=O)N1CCCC(C(=O)c2cccc(C(F)(F)F)c2)C1 (stereo not drawn) | 5.23 |
| COc1ccc(S(=O)(=O)N2CCc3ccccc3C2)cc1C(=O)O | 1.57 |
| CCc1ccccc1N(CC(=O)N1CCN(c2ccccc2F)CC1)S(C)(=O)=O | 12.8 |
| FC(F)(F)c1cccc(Nc2nc(N3CCCC3)nc(N3CCCC3)n2)c1 | 27.2 |
| O=C1N(c2ccccc2)c2ccccc2C1(Cc1ccncc1)Cc1ccncc1 | 5.83 |
| CCN(c1ccccc1)S(=O)(=O)c1cccc(C(=O)NCC(c2cccs2)N(C)C)c1 (stereo not drawn) | 0.467 |
| Cc1ccc(Nc2n[nH]c(C)c2[N+](=O)[O-])cc1 | 12.2 |
| Cc1ccc[n+](CC(=O)Nc2ccc(N(C)C)cc2)c1.[Cl-] | 14.5 |
| O=C(CN1C(=O)NC2(CCCCC2)C1=O)Nc1cccc(Cl)c1Cl | 5.22 |
| Cc1cccc(C(=O)OC2CCOC2=O)c1O (stereo not drawn) | 13.2 |
| COc1ccc(C)cc1S(=O)(=O)NCCc1ccccc1 | -14 |
| CSc1ccc(OC2CCCCC2NS(=O)(=O)c2ccc(Cl)cc2)cc1 (stereo not drawn) | 10.2 |
| CN(C)CCCN(C(=O)c1ccco1)c1nc2c(F)cc(F)cc2s1.Cl | -60.2 |
| COc1ccc(/C=C/C(=O)NC(=S)NCCc2ccc(OC)c(OC)c2)cc1 | 13.1 |
| Cc1cccc(NS(=O)(=O)c2ccc3c(c2)Cc2cc(S(=O)(=O)Nc4cccc(C)c4C)ccc2-3)c1C | 3.6 |
| COc1ccc(OC)c(NC(=O)C2CCN(c3nc(C)cc(C)n3)CC2)c1 | -3.75 |
| CC(C)NC(=O)COC(=O)c1ccccc1C(=O)c1ccccc1 | 10.9 |
| CCSc1nc(-c2cccs2)nc2ccccc12 | 1.52 |
| CC(C)Oc1ccc(CCNC(=O)C2CCC(=O)N(Cc3cccc(F)c3)C2)cc1 (stereo not drawn) | -1.31 |
| Cc1nn(C)c(C)c1CN(C)C(=O)c1nn2c(c1Br)NC(c1cccs1)CC2C(F)(F)F (stereo not drawn) | 5.33 |
